This is an account of results in article PMC6919601, “Identification of Plasmodium dipeptidyl aminopeptidase allosteric inhibitors by high throughput screening” (PLoS ONE, 2019).

The campaign covered roughly 110,000 compounds. About 230 (0.21%) showed an effect of 50% or more. The list shows a part of the results.
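Also: 30 min substrate incubation versus DMSO and 10 µM JCP410 controls.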

Chain of DPAP1 (Q8IIJ9 whole entry, looked up): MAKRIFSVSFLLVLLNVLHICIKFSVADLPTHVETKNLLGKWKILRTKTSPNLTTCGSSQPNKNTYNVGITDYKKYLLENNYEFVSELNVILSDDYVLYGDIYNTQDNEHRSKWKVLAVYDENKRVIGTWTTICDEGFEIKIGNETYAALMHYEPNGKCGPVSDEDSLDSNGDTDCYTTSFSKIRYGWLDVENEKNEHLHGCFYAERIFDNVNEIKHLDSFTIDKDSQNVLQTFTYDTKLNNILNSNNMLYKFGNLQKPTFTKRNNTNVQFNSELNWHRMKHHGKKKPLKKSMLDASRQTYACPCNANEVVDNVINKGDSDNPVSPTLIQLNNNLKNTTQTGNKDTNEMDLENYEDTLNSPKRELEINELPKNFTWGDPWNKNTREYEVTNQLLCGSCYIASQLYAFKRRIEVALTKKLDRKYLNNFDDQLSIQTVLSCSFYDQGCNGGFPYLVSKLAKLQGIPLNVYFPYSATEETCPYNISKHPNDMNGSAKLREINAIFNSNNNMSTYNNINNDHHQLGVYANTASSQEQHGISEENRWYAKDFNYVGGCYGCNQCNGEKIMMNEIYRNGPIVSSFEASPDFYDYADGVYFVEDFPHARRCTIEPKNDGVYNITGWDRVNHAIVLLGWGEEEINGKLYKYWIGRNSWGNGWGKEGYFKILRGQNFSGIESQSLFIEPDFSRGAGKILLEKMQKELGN

The assay addresses DPAP1 (Plasmodium falciparum, UniProt Q8IIJ9). The assay can be described thus: primary screen, percent inhibition; read by cleavage of a fluorogenic dipeptide substrate; higher = more effect of the substance. The arrangement: species or system P. falciparum D10 trophozoite lysates; single well.
Take `Clc1ccc(N2CCN(Cc3c(Cl)cccc3Cl)CC2)cc1`: the “% Inhibition @ 10 uM” value is given as -4.75%.
On to `Cc1[nH]c2ccc(F)cc2c1CCNC(=S)NC(C)(C)C`, for which the “% Inhibition @ 10 uM” value is 4.41%.
Next, `c1ccc(Cn2c3c(c4ccccc42)CCc2c-3cnn2-c2ccccc2)cc1`: -2.63%.
Next, `CCCOc1ccc(C(=O)C2=C(O)C(=O)N(Cc3cccnc3)C2c2ccc(OC)cc2)cc1C` (centres unmarked): -7.58%; `O=C1C(=Cc2ccc(-c3ccc(F)cc3F)o2)C(=O)c2ccccc21`: 4.66%; `N=C1S/C(=C\c2ccc(-c3cccc(F)c3)o2)C(=O)N1c1nonc1N`: 1.86%.
For `CCOC(=O)c1ccc(Oc2nc(C)cc(OC)n2)cc1`, the “% Inhibition @ 10 uM” value stood at 0.884%.
Next, `COc1ccc(Cn2nnc3c(O)nc(C4CCCN(S(=O)(=O)c5ccccc5)C4)nc32)cc1` (centres unmarked): -2.28%.
On to `CCOc1ccc(-c2nc3c(c(SCC(N)=O)n2)Cc2cccc(C)c2O3)cc1`, for which the “% Inhibition @ 10 uM” value is recorded as -8.42%.
Next, `CCOC(=O)c1cc(-c2ccc3c(c2)OCCO3)[nH]n1`: 4.98%; `O=C(O)CCCN1Cc2ccccc2C1`: 3.93%; `CCOC(=O)C1=C(C)N=c2s/c(=C\c3ccc(N(C)C)o3)c(=O)n2C1c1ccc(OC)cc1OC` (centres unmarked): 9.03%.
For the compound `COc1cc(C2C(C#N)=C(N)Oc3cc(O)ccc32)cc(OC)c1OC` (centres unmarked), the “% Inhibition @ 10 uM” value was -4.6%.
Take `O=C(C1CC(c2ccccc2F)=NO1)N1CCC2(CC1)OCCO2` (centres unmarked): the “% Inhibition @ 10 uM” value is listed as -3.94%.
As for `O=C(NCc1ccccc1Cl)C1CCCN(S(=O)(=O)c2cccc3cccnc23)C1` (centres unmarked), the “% Inhibition @ 10 uM” value is -6.52%.
As to `Cc1cc2ncn(C(C)c3ccccc3)c2cc1C` (centres unmarked), the “% Inhibition @ 10 uM” value was -0.764%.
Take `CCOc1ccc(N(CC(=O)Nc2ccccc2C)S(=O)(=O)c2ccc(C)cc2)cc1`: the “% Inhibition @ 10 uM” value was -1.24%.
On to `CC(C)c1ccc(NC(=O)c2ccc(N(C)C)cc2)cc1`, for which the “% Inhibition @ 10 uM” value is -3.95%.
For `CC1CN(S(=O)(=O)Cc2ccccc2)CC(C)O1` (centres unmarked), the “% Inhibition @ 10 uM” value amounted to 0.219%.
Next, `CCC(O)c1nc2ccccc2n1CC1CCCCC1` (centres unmarked): -1.31%.
As for `CCOc1ccc(/C=C/c2nc(O)c([N+](=O)[O-])c(O)n2)cc1`, the figure is 0.634%.
As for `Cc1ccccc1NC(=O)CCCCCCC(=O)Nc1ccccc1C`, the figure is 1.27%; as for `CCN(CC)S(=O)(=O)c1ccc(Cl)c(C(=O)Nc2nccs2)c1`, -8.31%.
For `O=S(=O)(c1cccc(C(F)(F)F)c1)N1CCN(Cc2ccc3c(c2)OCO3)CC1`, the “% Inhibition @ 10 uM” value is listed as -1.57%.
Take `CCOC(=O)c1ccc(NC(=O)Nc2ccc(Cl)c(Cl)c2)cc1`: the “% Inhibition @ 10 uM” value came to 2.55%.
As for `CN(C)CCCn1c(N)c(S(=O)(=O)c2ccccc2)c2nc3ccccc3nc21`, the figure is -1.45%.
For `CCc1cc(C(=O)CCC(=O)OC)c(CC)s1`, the “% Inhibition @ 10 uM” value is recorded as 2.33%.
As to `COc1ccc(C2CC(=O)NC3=C2C(=O)CC(c2cccs2)C3)cc1OC` (centres unmarked), the “% Inhibition @ 10 uM” value was -8.2%.
As for `COc1ccc(C2C(C#N)=C(N)Oc3[nH]nc(C)c32)cc1COc1cccc(Br)c1` (centres unmarked), the figure is -0.25%; as for `CC1CC(C)CN(C(=O)NCc2noc3ccccc23)C1` (centres unmarked), 0.857%; as for `Fc1ccccc1N1CCN(CC2CC3C=CC2C3)CC1` (centres unmarked), 2.7%.
With `CCOc1ccc(C2C3=C(O)CC(C)(C)CC3=Nc3nn(-c4ccccc4)c(O)c32)cc1` (centres unmarked), the “% Inhibition @ 10 uM” value is listed as 1.19%.
With `COc1cccc(NC(=O)c2ccc(-c3ccccc3)cc2)c1`, the “% Inhibition @ 10 uM” value was -9.12%.
Next, `C=C(C)CN(CC)C1CCN(C(C)=O)CC1`: 2.7%.
Next, `O=C(O)c1ccc(Br)c(S(=O)(=O)N2CCCCC2)c1`: -0.546%; `COc1ccc(N2CCN(C(=O)C(C)N(c3ccccc3)S(C)(=O)=O)CC2)cc1` (centres unmarked): 0.131%; `CCOc1ccc(C(=O)Nc2ccccc2Br)cc1`: 0.13%.
For the compound `O=C(O)CCCCCn1c(SCC(=O)c2ccc(O)c(O)c2)nc2ccsc2c1=O`, the “% Inhibition @ 10 uM” value came to 4.17%.
As for `COc1cccc(C(=O)Nc2cc3c(cc2C(=O)c2ccccc2Cl)OCCO3)c1`, the figure is -8.36%; as for `COc1ccc2nc(NC(=O)CN(C)S(=O)(=O)c3cccc4nsnc34)sc2c1`, 0.317%.
Regarding `O=C(c1ccccc1O)N1N=C(c2ccc(Cl)cc2)CC1(O)C(F)(F)F` (centres unmarked), the “% Inhibition @ 10 uM” value is -4.16%.
As for `Cc1nn(C)cc1C(=O)Nc1cnn(Cc2ccc(F)cc2)c1`, the figure is 4.31%; as for `C=CCNC(=O)C1CC(c2ccccc2F)=NO1` (centres unmarked), -5.79%; as for `CCc1ccc2oc(C(=O)N(Cc3ccccc3F)C3CCS(=O)(=O)C3)c(C)c2c1` (centres unmarked), -5.18%.
Consider `Cc1cc(Oc2ccc(-c3ccccc3)cc2)nc(-c2ccccc2)n1`, for which the “% Inhibition @ 10 uM” value is listed as -3.26%.
As for `CC(C)Cc1ccc(-c2[nH]nc3c2C(c2cccnc2)C(C#N)=C(N)O3)cc1` (centres unmarked), the figure is -0.68%.
`O=C(C1CCC(CNc2c(N3CCCCC3)c(=O)c2=O)CC1)N1CCN(C2CCCCC2)CC1` (centres unmarked): the “% Inhibition @ 10 uM” value is -0.447%.
For `CCOc1ccc(N2CC(C(=O)Nc3ccc(Br)cc3C)CC2=O)cc1` (centres unmarked), the “% Inhibition @ 10 uM” value was 4.05%.
As to `Clc1ccc(C2=NN(c3ccc(Br)cc3)C(c3cccs3)C2)cc1` (centres unmarked), the “% Inhibition @ 10 uM” value is -6.27%.
Consider `CCOC(=O)N1CCC(NC2C3CC4CC(C3)CC2C4)CC1` (centres unmarked), for which the “% Inhibition @ 10 uM” value is reported as -1.75%.
